From article PMC6555819
The other results are listed elsewhere or left out.

Each sequence was assayed against T1, RARb (Homo sapiens) (UniProt P10826). Conditions: 270 nM, no RXRa, PBS pH 7.4, 2% milk, 0.02% Triton X-100, 1 mM DTT, BSA, 0.4 mg/ml salmon testes DNA; double strand, one strand shown.
T1 sequence: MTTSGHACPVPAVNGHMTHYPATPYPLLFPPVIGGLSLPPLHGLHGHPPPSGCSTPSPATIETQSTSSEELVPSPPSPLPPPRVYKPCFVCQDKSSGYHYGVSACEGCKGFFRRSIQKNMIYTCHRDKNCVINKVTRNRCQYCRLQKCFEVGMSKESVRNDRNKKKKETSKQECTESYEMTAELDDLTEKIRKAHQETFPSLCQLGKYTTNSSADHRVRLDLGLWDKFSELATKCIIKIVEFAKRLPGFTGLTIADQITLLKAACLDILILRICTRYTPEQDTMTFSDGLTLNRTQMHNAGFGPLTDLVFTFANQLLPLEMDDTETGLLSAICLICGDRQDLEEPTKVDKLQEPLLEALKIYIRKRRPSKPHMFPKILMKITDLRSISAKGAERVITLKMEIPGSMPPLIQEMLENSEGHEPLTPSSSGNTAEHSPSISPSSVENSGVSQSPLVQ
“GCGCCTGTGGTTGACTGAATCCACAGATGTGGAACCGCGATTGACAGCGTAGAATGAAGG” gave a binding signal (PBM z-score against 500 random probes) of -0.48. For “GCGTAAGACACCTTCCTAGGAAGAGAACAGCAGAATGCGATTGACAGCGTAGAATGAAGG”, the binding signal (PBM z-score against 500 random probes) was -0.55. “GCGGCTGTTAGCGCTCATCTCTGTGTGCCTTCACAGGCGATTGACAGCGTAGAATGAAGG” was tested, and the binding signal (PBM z-score against 500 random probes) was -1.11. Sequence “GCAACAAAGCCTGTATGACAGCACATCTGTGTACAGGCGATTGACAGCGTAGAATGAAGG” has a binding signal (PBM z-score against 500 random probes) of -0.99. “GCTTTAGAAGAAAGGTTTCATTACTGAGAGCAGCCAGCGATTGACAGCGTAGAATGAAGG” gave a binding signal (PBM z-score against 500 random probes) of -0.84. Work on “GCCTCTTGCTCCCTATTGGTCTATTGCACTGCAGAGGCGATTGACAGCGTAGAATGAAGG” yielded a binding signal (PBM z-score against 500 random probes) of 0.5.

The sequences below were run against T2, RARg (Homo sapiens) (UniProt P13631). Conditions: 270 nM, no RXRa, PBS pH 7.4, 2% milk, 0.02% Triton X-100, 1 mM DTT, BSA, 0.4 mg/ml salmon testes DNA; double strand, one strand shown.
T2 sequence: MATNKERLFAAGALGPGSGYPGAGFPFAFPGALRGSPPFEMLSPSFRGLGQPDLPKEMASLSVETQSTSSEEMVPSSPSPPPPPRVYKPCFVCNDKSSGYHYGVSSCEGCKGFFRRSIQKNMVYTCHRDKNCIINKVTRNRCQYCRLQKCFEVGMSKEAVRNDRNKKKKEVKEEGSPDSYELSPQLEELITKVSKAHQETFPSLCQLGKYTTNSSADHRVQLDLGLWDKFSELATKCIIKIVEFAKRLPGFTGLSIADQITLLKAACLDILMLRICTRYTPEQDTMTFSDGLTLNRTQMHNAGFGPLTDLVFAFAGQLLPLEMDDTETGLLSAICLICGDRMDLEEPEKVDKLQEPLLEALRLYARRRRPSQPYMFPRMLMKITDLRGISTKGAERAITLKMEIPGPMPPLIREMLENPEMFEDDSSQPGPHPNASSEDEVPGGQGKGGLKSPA
For “GCTAGTCCAGCTGGCTGGAGACTCATGGAAGAACAGGCGATTGACAGCGTAGAATGAAGG”, the binding signal (PBM z-score against 500 random probes) was 0.09. For “GCGCATGCCACAGGACTGGTAGGCAGCTCCATCTGCGCGATTGACAGCGTAGAATGAAGG”, the binding signal (PBM z-score against 500 random probes) was -0.87. With “GCGTAAGACACCTTCCTAGGAAGAGAACAGCAGAATGCGATTGACAGCGTAGAATGAAGG” the binding signal (PBM z-score against 500 random probes) was -0.12. Work on “GCAACATTTCAGTATACTTTCTAGCAACTCTGGGTAGCGATTGACAGCGTAGAATGAAGG” yielded a binding signal (PBM z-score against 500 random probes) of 0.26. With “GCAGAAGAAGACCAAAGTATTCCCTCACTGCCTATGGCGATTGACAGCGTAGAATGAAGG” the binding signal (PBM z-score against 500 random probes) was -0.31. Sequence “GCTAGGAATGTGAGTTTCTCTAAGTTCTATTCCTGGGCGATTGACAGCGTAGAATGAAGG” has a binding signal (PBM z-score against 500 random probes) of 0.34.
